According to ChEMBL document CHEMBL4888484, “Replenishing the malaria drug discovery pipeline: Screening and hit evaluation of the MMV Hit Generation Library 1 (HGL1) against asexual blood stage Plasmodium falciparum ,using a nano luciferase reporter read-out” (2022):
Screen size: about 150,000 compounds; about 540 (0.36%) showed an effect of 50% or more. The list shows a part of the results.

System: Plasmodium falciparum
Assay: Primary screen in NF54 nanoGlo assay, in single point, at 2uM, 72h; a lower Z score goes with more inhibition
Type: functional, Erythrocyte
Settings: timepoint 72 hour

| SMILES | % Inhibition [%] | Z score |
| --- | --- | --- |
| CC(C1CC1)N(C)S(=O)(=O)NC1CCCc2nn(C)cc21 (stereo not drawn) | -5 | 0.75 |
| CCC(C(=O)NC(COC)c1ccco1)c1ccccc1 (stereo not drawn) | 9 | -1.79 |
| CCCn1nccc1C(=O)N[C@H]1CCc2c[nH]nc2C1 | -13 | 2.17 |
| Cc1nn(CC(=O)N2CCCC[C@@H]2CO)c(=O)n1-c1ccc2c(c1)OCO2 | -5 | 0.53 |
| Cc1ccc(C(O)CNC2C3CCOC3C2(C)C)cc1 (stereo not drawn) | 1 | -0.18 |
| Cc1ccc(N2C(=O)c3cc(C(C)(C)C)nn3C[C@@]2(C)C(=O)NCc2ccccc2)cc1 | 11 | -1.11 |
| COc1ccc(CCNC(=O)C(=Cc2cccc(OC)c2OC)C(=O)NCCc2ccc(OC)cc2)cc1 | 6 | -0.63 |
| COc1ccc(OC)c(CNc2ncnc3onc(-c4cc(F)cc(F)c4)c23)c1 | -1 | 0.18 |
| COC(=O)C1COCCN1C(=O)CCOCC1CCCO1 (stereo not drawn) | -12 | 1.62 |
| CCC(=O)N(C)c1nc2ccccc2n(CC(=O)Nc2ccc(C)cc2C)c1=O | 3 | -0.47 |
| COCc1noc(CNC(=O)c2ccc(CN(C)C)o2)n1 | 0 | 0.02 |
| c1csc(-c2ccc(-c3nc4c([nH]3)CCNC4)s2)c1 | 9 | -1.71 |
| COc1cc([C@H]2CC(=O)NCc3nc4ccccn4c32)cc2c1OCO2 | -12 | 1.6 |
| Cc1ccccc1CCCn1ccnn1 | -5 | 1.04 |
| O=C(Nc1nncs1)c1cc(=O)c(OCc2ccc(Cl)cc2)c[nH]1 | 11 | -1.4 |
| O=S1(=O)CCCN(Cc2ncc(Br)s2)CC1 | -12 | 1.92 |
| c1cn(Cc2ccc3nsnc3c2)c(-c2cc3n(n2)CCCNC3)n1 | -2 | 0.2 |
| Cn1ncc2c1CCCC2NC1CCOC2(CCCC2)C1 (stereo not drawn) | -5 | 0.94 |
| O=C(NCc1ccccc1)c1ccc(COc2cccc3ccccc23)o1 | -4 | 0.48 |
| Cc1ccc(C(=O)N(CC(F)(F)F)[C@@H](C)C2CC2)cn1 | 1 | -0.12 |
| COc1ccc(NC(=O)Cn2nc3c(N4CCN(c5ccccc5)CC4)nccn3c2=O)cc1OC | 9 | -0.85 |
| CNc1cc([C@H]2C[C@@H](NC(=O)c3sc(OC)nc3C)C2)nc(N)n1 | 2 | -0.18 |
| CN1C(=O)CC[C@]2(CNC(=O)c3ccccc3F)CCC=C12 | -4 | 0.65 |
| COc1cccc(CNC(=O)c2coc(COc3ccccc3F)n2)c1 | -6 | 1.25 |
